Reference: a collection of fitness landscapes (doi:10.1126/science.1257360)
The list shows a part of the results.

B1: PhoQ; a variant is named by its letters at X, in order, P23837 (parent)
chain: MKKLLRLFFPLSLRVRFLLATAAVVLVLSLAYGMVALIGYSVSFDKTTFRLLRGESNLFYTLAKWENNKLHVELPENIDKQSPTMTLIYDENGQLLWAQRDVPWLMKMIQPDWLKSNGFHEIEADVNDTSLLLSGDHSIQQQLQEVREDDDDAEMTHSVAVNVYPATSRMPKLTIVVVDTIPVELKSSYMVWSWFIYVLSANLLLVIPLLWVAAWWSLRPIEALAKEVRELEEHNRELLNPATTRELTSLVRNLNRLLKSERERYDKYRTTLTDLTHSLKTPLXXLQXXLRSLRSEKMSVSDAEPVMLEQISRISQQIGYYLHRASMRGGTLLSRELHPVAPLLDNLTSALNKVYQRKGVNISLDISPEISFVGEQNDFVEVMGNVLDNACKYCLEFVEISARQTDEHLYIVVEDDGPGIPLSKREVIFDRGQRVDTLRPGQGVGLAVAREITEQYEGKIVAGESMLGGARMEVIFGRQHSAPKDE

Variants of: B1
Experiment: enrichment ratio after two sorts for PhoP signalling (ratio (wild type AVST 3.29)); higher = more functional
Details: with PhoP (E. coli)

Row | Variant | enrichment ratio
1 | RGEK | ≤ 0.25
2 | RHHT | ≤ 0.25
3 | RHPP | ≤ 0.25
4 | PQNR | ≤ 0.25
5 | HTYG | ≤ 0.25
6 | SRDI | 0.315
7 | HQPK | ≤ 0.25
8 | VCNA | ≤ 0.25
9 | DPWY | ≤ 0.25
10 | RIRP | ≤ 0.25
11 | YRKY | 1.52
12 | VVPY | ≤ 0.25
13 | ILAV | ≤ 0.25
14 | DMES | ≤ 0.25
15 | DELY | ≤ 0.25
16 | VNKN | ≤ 0.25
17 | HVFF | ≤ 0.25
18 | MHVQ | ≤ 0.25
19 | PIDV | ≤ 0.25
20 | QVDC | ≤ 0.25
21 | VIYH | ≤ 0.25
22 | TMPH | ≤ 0.25
23 | SRKN | ≤ 0.25
24 | DCTH | ≤ 0.25
25 | RKEF | ≤ 0.25
26 | KPHV | ≤ 0.25

Row | Variant | enrichment ratio
27 | HEGP | ≤ 0.25
28 | NRFD | ≤ 0.25
29 | HVCP | ≤ 0.25
30 | SKEN | ≤ 0.25
31 | VYTS | ≤ 0.25
32 | ITGV | ≤ 0.25
33 | ILLQ | ≤ 0.25
34 | YAVK | ≤ 0.25
35 | PALW | ≤ 0.25
36 | QPAV | ≤ 0.25
37 | KECG | ≤ 0.25
38 | VWWP | ≤ 0.25
39 | LFCI | ≤ 0.25
40 | DLYQ | ≤ 0.25
41 | DQSV | ≤ 0.25
42 | MRDQ | ≤ 0.25
43 | IGTP | ≤ 0.25
44 | FRLC | ≤ 0.25
45 | QLVW | ≤ 0.25
46 | VPYS | ≤ 0.25
47 | PRWS | ≤ 0.25
48 | GRSR | ≤ 0.25
49 | TNMY | ≤ 0.25
50 | SKRF | ≤ 0.25
51 | TCPP | ≤ 0.25
52 | VRSF | ≤ 0.25

Row | Variant | enrichment ratio
53 | LGRP | ≤ 0.25
54 | HASD | ≤ 0.25
55 | NQWC | ≤ 0.25
56 | AWII | ≤ 0.25
57 | TGPS | ≤ 0.25
58 | YFSG | ≤ 0.25
59 | LINT | ≤ 0.25
60 | WQCS | ≤ 0.25
61 | DWCQ | ≤ 0.25
62 | DWYY | ≤ 0.25
63 | SDCC | 8.06
64 | IGST | ≤ 0.25
65 | PNAH | ≤ 0.25
66 | ICKW | ≤ 0.25
67 | SGQV | 7.41
68 | HHML | ≤ 0.25
69 | VWAQ | ≤ 0.25
70 | SVDV | ≤ 0.25
71 | RYRY | ≤ 0.25
72 | YHTQ | ≤ 0.25
73 | KHTR | ≤ 0.25
74 | QKDI | ≤ 0.25
75 | EAYS | ≤ 0.25
76 | IRHT | ≤ 0.25
